From PMC4336329 (PLoS ONE, 2015) come the findings set out here.

Molecules are shown by their SMILES. Screen size: about 310,000 compounds; about 2,200 (0.71%) showed an effect of 50% or more. The effect is printed as a negative number. Some of the results follow.

Sequence of human ether-à-go-go-related gene (hERG) potassium channel (Q12809 whole entry, looked up): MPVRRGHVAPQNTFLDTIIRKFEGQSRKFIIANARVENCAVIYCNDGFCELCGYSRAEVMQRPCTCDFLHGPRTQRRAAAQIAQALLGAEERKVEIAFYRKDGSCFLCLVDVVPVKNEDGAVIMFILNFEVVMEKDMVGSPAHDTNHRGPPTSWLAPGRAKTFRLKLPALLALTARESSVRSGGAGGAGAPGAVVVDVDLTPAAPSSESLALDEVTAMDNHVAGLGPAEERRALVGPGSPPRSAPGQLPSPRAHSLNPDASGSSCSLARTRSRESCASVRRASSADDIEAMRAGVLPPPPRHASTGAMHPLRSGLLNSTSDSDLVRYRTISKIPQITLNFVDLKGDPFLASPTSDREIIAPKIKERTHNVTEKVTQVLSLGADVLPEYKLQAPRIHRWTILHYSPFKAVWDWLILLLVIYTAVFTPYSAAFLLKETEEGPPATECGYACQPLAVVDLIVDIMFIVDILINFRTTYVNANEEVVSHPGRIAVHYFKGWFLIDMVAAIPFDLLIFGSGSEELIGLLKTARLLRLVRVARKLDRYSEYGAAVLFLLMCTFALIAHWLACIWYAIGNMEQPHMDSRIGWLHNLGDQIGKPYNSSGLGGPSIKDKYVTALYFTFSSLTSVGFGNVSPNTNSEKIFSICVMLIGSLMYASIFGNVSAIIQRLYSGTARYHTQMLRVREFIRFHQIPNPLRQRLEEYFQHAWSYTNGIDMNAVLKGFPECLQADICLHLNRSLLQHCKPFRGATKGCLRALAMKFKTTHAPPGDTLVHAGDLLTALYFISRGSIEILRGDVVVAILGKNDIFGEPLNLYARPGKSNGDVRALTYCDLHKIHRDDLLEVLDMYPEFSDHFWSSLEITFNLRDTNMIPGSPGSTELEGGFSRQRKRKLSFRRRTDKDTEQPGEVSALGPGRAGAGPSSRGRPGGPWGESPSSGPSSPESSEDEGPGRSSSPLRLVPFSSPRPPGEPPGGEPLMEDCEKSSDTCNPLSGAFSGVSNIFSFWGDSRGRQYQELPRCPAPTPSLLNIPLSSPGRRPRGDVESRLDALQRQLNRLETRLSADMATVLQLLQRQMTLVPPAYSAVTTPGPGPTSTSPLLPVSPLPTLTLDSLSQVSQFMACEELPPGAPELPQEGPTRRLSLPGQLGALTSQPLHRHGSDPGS

The test has as its target human ether-à-go-go-related gene (hERG) potassium channel (human, UniProt Q12809). Description: primary screen, population patch clamp on CHO cells stably expressing hERG.
On to `O=C(Cc1ccccc1)Nc1cccc(-c2nnc(-c3ccco3)o2)c1`, for which the “hERG current change (%, negative = inhibition) at 1uM” value was -0.0978%.

For the compound `O=C(NC1CCCCC1)C(c1ccco1)N(CCc1ccccc1)C(=O)C(F)(F)F` (centres unmarked), the “hERG current change (%, negative = inhibition) at 1uM” value was determined as 7.77%. Then `CCc1nnc(NC(=O)c2cccc(OC)c2)s1`, with 12.9%; and `COc1ccc(C(=O)/C=C/c2ccc(OC(=O)c3cc(OC)c(OC)c(OC)c3)cc2)cc1`, with 1.08%. Then `O=C(C1CCCN(CCCc2ccccc2)C1)N1CCCCCC1.O=C(O)C(=O)O` (centres unmarked), with -5.81%; and `COC(=O)c1ccc(C(c2c(C)n(C)n(-c3ccccc3)c2=O)c2c(C)n(C)n(-c3ccccc3)c2=O)cc1`, with 14.9%; and `CCOC(=O)C1CCN(C(=O)CCCNC(=O)Cn2cnc3sc(C)c(C)c3c2=O)CC1`, with 14.1%. Then `COc1cccc(OCC(Cn2c(C)nc3ccccc32)OC(C)=O)c1` (centres unmarked), with -2.07%. Turning to `Cc1onc(-c2ccccc2)c1C(=O)OCC(=O)N(C)c1c(N)n(Cc2ccccc2)c(=O)[nH]c1=O`, the “hERG current change (%, negative = inhibition) at 1uM” value is 3.73%.

Consider `COc1ccc(C(=O)/C(C)=N/O)cc1OC`, for which the “hERG current change (%, negative = inhibition) at 1uM” value is on record as 4.5%. Then `CSc1ccccc1NC(=O)CN(C)Cc1cccc(Cl)c1.O=C(O)C(=O)O`, with 14.9%; and `Cc1ccc(S(=O)(=O)c2c(N)n(NC(=O)C3CC3)c3nc4ccccc4nc23)cc1`, with 8.33%. Turning to `COc1ccc(S(=O)(=O)NCCC(=O)NCc2ccccc2)cc1`, the “hERG current change (%, negative = inhibition) at 1uM” value was -2.71%. Then `CCOc1cc2c(cc1OCC)C(C(=O)O)C(c1ccc(OC)c(O)c1)N(C)C2=O` (centres unmarked), with 16%; and `O=C(NC1CCN(C(=O)N2CCOCC2)CC1)c1ccccc1`, with 7.17%. Then `COc1cccc(NC(=O)CCC2CCN(C(=O)Cc3cccc(F)c3)CC2)c1`, with 5.3%; and `O=C(COC(=O)CSc1ccc(F)cc1)NCc1ccco1`, with 9.26%. Then `O=C(NC(=S)Nc1ccccn1)c1ccco1`, with 12%; and `COc1cccc(NC(=O)CN2CCN(CC(=O)Nc3ccc(F)cc3)CC2)c1`, with -90.6%; and `CCCN(C(=S)Nc1ccccc1)C1CCS(=O)(=O)C1` (centres unmarked), with 20.2%. Regarding `COC(=O)C1=C(N)Oc2c(oc(CO)cc2=O)C1c1c(F)cccc1Cl` (centres unmarked), the “hERG current change (%, negative = inhibition) at 1uM” value was determined as 5.13%.

Consider `CCOC(=O)CC(=O)Nc1cc(Cl)ccc1O`, for which the “hERG current change (%, negative = inhibition) at 1uM” value is given as -0.29%.

Take `Cc1c(C)n(C(=O)CN2CCC(C)CC2)c2ccccc12`: the “hERG current change (%, negative = inhibition) at 1uM” value was 6.02%. Then `COc1ccc(C(=O)NCC(=O)OCC(=O)N2N=C(c3ccc(Cl)cc3)CC2c2ccco2)cc1OC` (centres unmarked), with 14.1%; and `CCCCN(CCCC)CP(=O)(c1ccccc1)c1ccccc1`, with 4.98%.

Take `O=C(CC(C(=O)O)c1ccc(Cl)cc1Cl)c1ccc(Cl)cc1` (centres unmarked): the “hERG current change (%, negative = inhibition) at 1uM” value came to 12.3%. Then `O=C(NCc1ccccn1)c1cccc(NS(=O)(=O)c2ccccc2)c1`, with 15.7%; and `O=C(O)c1cc(/C=C/C(=O)c2cc(F)ccc2O)c2c(c1)COCO2`, with 2.04%; and `CN(Cc1nc(-c2cccnc2)no1)S(=O)(=O)c1ccc2ccccc2c1`, with -11.2%.

Turning to `CCc1nc(CNC(=O)c2cc(OC)c(OC)c(OC)c2)no1`, the “hERG current change (%, negative = inhibition) at 1uM” value is 9.7%. Then `CC(=O)C1=NN(c2ccccc2)C2(S1)S/C(=C\c1ccccc1)C(=O)N2c1ccccc1` (centres unmarked), with 16.8%. As for `CC1CCc2sc(C(=O)NC3CCN(Cc4ccccc4)CC3)cc2C1` (centres unmarked), the “hERG current change (%, negative = inhibition) at 1uM” value was -3.62%. Then `COc1ccc(C)cc1S(=O)(=O)N(C)CC(=O)N1CCC(C)CC1`, with 13.9%; and `CCOC(=O)c1oc2nc3c(cc2c1N)COC(C)(C)C3`, with 11.7%. `Cc1cc(=O)oc2cc(OCC(=O)N3CC(C)OC(C)C3)ccc12` (centres unmarked): the “hERG current change (%, negative = inhibition) at 1uM” value is given as 9.82%.

Take `COc1ccc(NC(=O)CN(C)CC(=O)Nc2ccc3c(c2)CCC3)cc1`: the “hERG current change (%, negative = inhibition) at 1uM” value was 3.24%. Then `COc1ccc(NC(=O)CN(C)C(=O)c2cc(C)on2)cc1`, with 8.15%; and `CCc1c(C(=O)N2CCCN(C)CC2)csc1C`, with 8.39%.

In the case of `Cc1ccc(OCC(O)CN2CC3(C)CC2CC(C)(C)C3)cc1.O=C(O)C(=O)O` (centres unmarked), the “hERG current change (%, negative = inhibition) at 1uM” value is -18.6%. For the compound `C=CCOc1ccc(C(=O)N(Cc2ccc(N(C)C)cc2)C2CCS(=O)(=O)C2)cc1` (centres unmarked), the “hERG current change (%, negative = inhibition) at 1uM” value is 2.15%. Then `Cc1ccc(N2CC(C(=O)Nc3ccc(C)c(S(=O)(=O)N(C)C)c3)CC2=O)cc1` (centres unmarked), with -3.07%. As for `O=C(COc1ccc2ccc(=O)oc2c1)Nc1cccnc1`, the “hERG current change (%, negative = inhibition) at 1uM” value amounted to 15%.

With `Cn1nnnc1SCC1=C(C(=O)[O-])N2C(=O)[C@@H](NC(=O)[C@H](O)c3ccccc3)[C@H]2SC1.[Na+]`, the “hERG current change (%, negative = inhibition) at 1uM” value is 13%. Then `CCC(C)c1ccccc1NC(=O)CN(C)CCOc1ccc(Cl)cc1` (centres unmarked), with 7.99%.
